Assay results as given in PMC4336329 (PLoS ONE, 2015).
Screen size: about 310,000 compounds; about 2,200 (0.71%) showed an effect of 50% or more. The effect is printed as a negative number. The list shows a part of the results.

These molecules were tested against human ether-à-go-go-related gene (hERG) potassium channel (human, UniProt Q12809) (assay: primary screen, population patch clamp on CHO cells stably expressing hERG).
Sequence of human ether-à-go-go-related gene (hERG) potassium channel (Q12809 whole entry, looked up): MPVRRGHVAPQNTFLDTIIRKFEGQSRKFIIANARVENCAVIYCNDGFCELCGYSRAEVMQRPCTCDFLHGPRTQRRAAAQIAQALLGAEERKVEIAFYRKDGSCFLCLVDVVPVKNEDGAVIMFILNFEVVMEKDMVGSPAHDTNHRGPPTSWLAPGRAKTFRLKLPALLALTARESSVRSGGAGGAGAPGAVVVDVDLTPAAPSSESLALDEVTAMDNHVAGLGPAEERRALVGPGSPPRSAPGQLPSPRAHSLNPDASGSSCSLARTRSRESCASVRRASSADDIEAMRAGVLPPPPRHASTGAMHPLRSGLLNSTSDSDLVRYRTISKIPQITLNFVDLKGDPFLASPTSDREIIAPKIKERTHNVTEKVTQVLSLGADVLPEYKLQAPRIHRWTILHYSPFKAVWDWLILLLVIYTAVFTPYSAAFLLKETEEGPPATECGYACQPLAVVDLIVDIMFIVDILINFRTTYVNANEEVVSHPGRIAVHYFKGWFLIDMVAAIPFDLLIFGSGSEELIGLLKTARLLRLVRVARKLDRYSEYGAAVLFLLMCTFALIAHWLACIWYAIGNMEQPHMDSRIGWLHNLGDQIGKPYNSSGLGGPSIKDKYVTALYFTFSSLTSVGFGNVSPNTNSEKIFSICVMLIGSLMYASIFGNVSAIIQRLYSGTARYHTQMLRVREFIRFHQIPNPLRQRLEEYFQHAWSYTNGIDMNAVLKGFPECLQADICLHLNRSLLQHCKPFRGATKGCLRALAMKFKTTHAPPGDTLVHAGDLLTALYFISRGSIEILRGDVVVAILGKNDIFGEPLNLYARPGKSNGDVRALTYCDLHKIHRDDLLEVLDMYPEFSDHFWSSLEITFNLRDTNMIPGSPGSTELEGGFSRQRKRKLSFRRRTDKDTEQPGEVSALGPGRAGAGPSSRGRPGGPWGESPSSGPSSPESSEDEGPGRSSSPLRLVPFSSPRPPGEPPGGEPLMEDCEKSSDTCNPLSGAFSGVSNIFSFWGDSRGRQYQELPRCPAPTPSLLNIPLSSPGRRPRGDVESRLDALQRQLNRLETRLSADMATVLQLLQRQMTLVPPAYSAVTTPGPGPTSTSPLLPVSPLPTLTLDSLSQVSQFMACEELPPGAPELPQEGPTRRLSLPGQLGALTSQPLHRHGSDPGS

SMILES | hERG current change (%, negative = inhibition) at 1uM
COc1cccc(NC(=O)CSc2nnc(Cc3ccc(OC)c(OC)c3)o2)c1 | 11.9%
O=C(NCc1ccccn1)C1CCC(=O)N1C1CCCCC1 (stereo not drawn) | 6.16%
NC(=O)CSc1n[nH]c(=O)n1CCc1ccccc1 | 10.4%
CCCC(=O)N(Cc1cc(=O)[nH]c2ccccc12)c1ccccc1 | 4.19%
CN(C)S(=O)(=O)c1ccc(C(=O)NCc2nnc(SCC(=O)c3ccccc3)o2)cc1 | 13.7%
COCCn1c(N)c(N(Cc2ccccc2)C(=O)c2ccc3ccccc3c2)c(=O)[nH]c1=O | 8.52%
COC(C)(C)[C@]12CC(O)(c3ccccc3)ON1[C@H]1CCCCC1N2O (stereo partly drawn) | 7.01%
O=C(c1ccc(Cl)c(S(=O)(=O)N2CCOCC2)c1)N1CCN(c2ccccc2F)CC1 | 4.69%
S=C(Sc1ccc(Cl)cc1)Sc1ccc(Cl)cc1 | 13.1%
c1ccc(CSc2ccc(-c3ccccn3)nn2)cc1 | 6.19%
COCCn1c(SCc2ccccc2)nc2c1c(=O)[nH]c(=O)n2C | 11.8%
C=CCn1c(COc2ccccc2F)nnc1SCC(=O)c1c[nH]c2ccccc12 | 7.59%
O=C1/C(=C/c2cccc(Cl)c2)SC(=S)N1CCC(=O)N1CCCCC1CCO (stereo not drawn) | 14%
Cc1c(NC(=O)C(C)OC(=O)/C=C/c2ccco2)c(=O)n(-c2ccccc2)n1C (stereo not drawn) | 11.2%
COc1cc(NC(=O)CSc2nnc(-c3cc(C)on3)o2)cc(OC)c1 | 14.1%
CN(C)CCCOc1ccc(C(C)(C)c2ccccc2)cc1.O=C(O)C(=O)O | 4.27%
COC(=O)c1ccc(-c2noc(CN(C)CCC3CCCCO3)n2)cc1 (stereo not drawn) | 5.65%
O=C(Nc1cc([N+](=O)[O-])ccc1F)c1ccc2ccccc2c1 | 18.2%
Cc1ccccc1C(=O)NNC(=O)CSc1nnc(C)n1-c1ccccc1 | 11.8%
COc1ccc(N(CC(=O)NCC2CCCO2)C(=O)CCC(=O)Nc2cc(C)on2)cc1OC (stereo not drawn) | 18.4%
CSc1ccc(/C=N/N2CCN(Cc3ccc(Cl)cc3)CC2)cc1 | 4.89%
C[C@]12CC[C@H]3C(=CCc4cc(O)ccc43)[C@@H]1CCC2=O | 14%
Cc1ccccc1NC(=O)CCSc1nnnn1-c1ccccc1 | 9.92%
Cc1cc(-c2nn(-c3ccccc3F)cc2CN2CCN(c3ccccn3)CC2)c(C)s1 | 10.2%
